Measurements taken from article PMC12136788.
Some of the results follow.

B1: chr1:36287001:36287112:+|CDS|ENSG00000054118|unk|total|mutant (ssRNA)
RNA: GGGAGUUCUACAGUCCGACGAUCCCCCUCCAGUCUGUGGUGGUGAGGCGGCGGUCACCCCGUCCCCGCCCCGUGCCAAAACCCCGUCCUCCACUUUCCAGCACAUCCCAGAUGGGCUCAACUCUGCCGAGUGGUGCCGGGUAUCAACAGAGGAUUGAGCAUCA
B2: chr2:216675988:216676089:-|3pUTR|ENSG00000115461|msi1|FALSE|unique (ssRNA)
RNA: GGGAGUUCUACAGUCCGACGAUCACUAAAAUGCAUUCCAUUCCUCUGAAAGCAAAACAAAUUCAUAAUUGAGUGAUAUUAAAUAGAGAGGUUUUCGGAAGCAGAUCUGUGAAUAUGAAAUACAUGUGCAUAUUUCAUUCCCCACAACAGAGGAUUGAGCAUCA
B3: chr21:14371318:14371404:-|3pUTR|ENSG00000155304|msi1_unk|total|mutant (ssRNA)
RNA: GGGAGUUCUACAGUCCGACGAUCUAUGAAUAACAAUCUGAAGUCUUUUCAUAAAAAAAAUUAAUAAACUUCCGUUGUACAUUCCGCCAGUGUUAUUUGAAGUAUGUAACUUUUAAAAUAUUAAGUGUCUUGUAUGAUCCGAAUCAACAGAGGAUUGAGCAUCA
B4: chr11:69653362:69653473:+|3pUTR|ENSG00000110092|msi1_unk|FALSE|overlapping (ssRNA)
RNA: GGGAGUUCUACAGUCCGACGAUCACUGCCAUGUACUAGUUUUAGUUUUCUCUUAGAACAUUGUAUUACAGAUGCCUUUUUUGUAGUUUUUUUUUUUUUUAUGUGAUCAAUUUUGACUUAAUGUGAUUACUGCUCUAUUCCAAACAACAGAGGAUUGAGCAUCA
B5: chrX:80717640:80717741:-|CDS|ENSG00000165288|msi1|total|mutant (ssRNA)
RNA: GGGAGUUCUACAGUCCGACGAUCCUGAGAAGUCCAAACAUGGACAUAUCUUCUUCCCCAAACAUCAGGCUUCGAAGACACCGCCGUCAAAUUGAAGGUGUCCGACAAAUGCAUAACAAUGCUCCUCGGAGCCAGAUGGCCACUCAACAGAGGAUUGAGCAUCA
B6: chr5:76733371:76733472:+|CDS|ENSG00000181104|msi1|total|mutant (ssRNA)
RNA: GGGAGUUCUACAGUCCGACGAUCGAUCCCAGCAGUUAUAACAGCAGUGGGCAGUUGAUGGCAAGUAAAAUGGAUACCUGCUCCCGUAACCUGAAUAACAGCAUAUACAAAAAGCUGUUAACUCCGGAAAAGGGACUGCUGGGACAACAGAGGAUUGAGCAUCA
B7: chr6:96891104:96891324:-|CDS|ENSG00000123545|unk|total|mutant (ssRNA)
RNA: GGGAGUUCUACAGUCCGACGAUCUAAUCAUAAGCUUUUCCCAGAAACCUGGACUGCUGAGAAAAUAAUGCAGGAAUACCAGUCCGAACAGAAAGAUGUGAAUUCUCUUCUUAAAUAUUUUGUUACUUUUGAAGUCGAAAUCUUCAACAGAGGAUUGAGCAUCA
B8: chr2:70149884:70150355:-|three_prime_utr|ENSG00000115998|control|control|control (ssRNA)
RNA: GGGAGUUCUACAGUCCGACGAUCAGAUAAUAAUCUUUUGCUGCUUAAUUUGCACAUCCCCACCCCUUGACAACUUUAAAUGCUAGUUAGGCACUUAGAUGGCCCUGUUCCUUGGUAAACUGCUCUUAGCUAAGAUGCAAAUUCCAACAGAGGAUUGAGCAUCA
B9: chr1:93888438:93888539:-|3pUTR|ENSG00000023909|msi1|FALSE|unique (ssRNA)
RNA: GGGAGUUCUACAGUCCGACGAUCAGAUAUUUUUCCUGUCAUUGAUGAGAUAUAUCAGAGUAACUGGAGUAGCUGGGAUUUACUAGUAGUGUAAAUAAAAUUCACUCUUCAAUACAUGAAUGGAAACUUAAAUUUUUUUUUAUGCAACAGAGGAUUGAGCAUCA
B10: chr12:1788447:1788559:+|3pUTR|ENSG00000006831|unk|FALSE|bound_elsewhere (ssRNA)
RNA: GGGAGUUCUACAGUCCGACGAUCUUUCUUUUUUGGCCCUAGGCUGGUUGGGACCUCUACAGCUUCAUUCUUUCACCAUUAAAUAGUGGCCUUUUUCAGUAUUUUCCCUCUUCCCCUUUAUAAAUUAUGCUAAAGCCACAAAGCCAACAGAGGAUUGAGCAUCA
B11: chr19:53353201:53353302:+|CDS|ENSG00000213799|msi1|total|mutant (ssRNA)
RNA: GGGAGUUCUACAGUCCGACGAUCCACAAUUCAGCCCUUGAAAUUCAUAAGGCAAUUCAUACUGGAGAAAAACCUUACAAGUGCCGUGAAUGUGGCAAGGUUUUUAACCGAAAAGCAAACCUUUCACGUCAUCACCGACUUCAUCAACAGAGGAUUGAGCAUCA
B12: chr4:16162636:16162738:-|3pUTR|ENSG00000169762|unk|total|mutant (ssRNA)
RNA: GGGAGUUCUACAGUCCGACGAUCACCUUAAAUAAGACAUGAUGAACCGCCGCAUUUUGCCGGGUUAAAAAAAAAUGCUAAACCCGUUUAUUUAUUAAAAAAAUAAUUAAUGAAGGCUAUGCAUUACUGGGAAAAAUCCUUCAUCAACAGAGGAUUGAGCAUCA
B13: chr22:39520512:39520623:+|5pUTR|ENSG00000128272|unk|total|mutant (ssRNA)
RNA: GGGAGUUCUACAGUCCGACGAUCUCUAUAAAGGGCCGGCGGGCGGCCACGGCAGCCAUUUCUACUUUGCCCGCCCACAGAUGCCGUUUUCUCUGCGCGUGUGCGUUUUCCCUCCUCCCCGCCCUCAGGGUCCACGGCCACCAUCAACAGAGGAUUGAGCAUCA
B14: chr2:106801599:106806677:-|three_prime_utr|ENSG00000144057|control|control|control (ssRNA)
RNA: GGGAGUUCUACAGUCCGACGAUCAAUCAAUGUGCAAUAAGGUACUACUGUUGUACUCAAAGUCACAAAAGAAUACUUGAAGAUAGAUUUUAGACAGUGUAGUUUUGAGUCUUUAAACAGUAAUUUAGUGGUGGUCAUGAUAAUCAACAGAGGAUUGAGCAUCA
B15: chr11:103061782:103061883:-|3pUTR|ENSG00000137692|unk|total|mutant (ssRNA)
RNA: GGGAGUUCUACAGUCCGACGAUCAAGACUGUUGGCCUUGACUUCUGGGAUAAUGAUUUGCUGAUGCAGCUAAUAAACAUUUCCCGGUAUUGGAAAAAUGCUCCUACUUUCCGCUCUGGGUUUCUAUAAAAGCUGCCAAGGUCUCAACAGAGGAUUGAGCAUCA
B16: chr8:58815337:58815724:-|CDS|ENSG00000198846|control|control|control (ssRNA)
RNA: GGGAGUUCUACAGUCCGACGAUCUAGUCUCCCCAGGAACAUAGCCCCCAAGCCGAAUAACCAAAUGCCAGUGACUGUCUCUAUAGCAAACAUGGCUGUGUCCCCUCCUCCUCCCCUCCAGAUCAGCCCGCCUCUUCACCAGCACAACAGAGGAUUGAGCAUCA
B17: chr6:89794666:89794767:-|CDS|ENSG00000112159|unk|total|mutant (ssRNA)
RNA: GGGAGUUCUACAGUCCGACGAUCCCAGUCUUUCAAAGACUUUUCCCCGAGAGUUCAGAUGCUAAUCCAGUACGCUAUGGACGCCGGAGGAUGAAGCUCCGGGACCUAAUGGAAGCAGCCUUCAAGUUUCUGCAGCAGGAGCAGCAACAGAGGAUUGAGCAUCA
B18: ENSG00000112208:stop:overlap|stop_codon|ENSG00000112208|stop_codon|NA|stop_codon (ssRNA)
RNA: GGGAGUUCUACAGUCCGACGAUCAGCAUUCUAAAGGAGCUGGUUCCAAAACUCUGCAACAAAAUGCUGAAAGCAGAUUCAAUUAGUCUUCAAACCUAAGAGCAUUUACACAAUACACAAGGUGUAAAAAUGAUAAAAUACUAUCAACAGAGGAUUGAGCAUCA
B19: chr11:92891788:92891889:+|3pUTR|ENSG00000165323|msi1|total|mutant (ssRNA)
RNA: GGGAGUUCUACAGUCCGACGAUCAUGAGGCUUUUUGGGUUCCAUUUGGUGGGUGGGGGAGGAAGUUAAAGUUGUUUGAACAUCCGAAAGAAUGUGAUUAUCUGGUUGGUUUUGUGUUUUCUGGUAAAUAUUCCAGUUGGUAAACAACAGAGGAUUGAGCAUCA
B20: ENSG00000069329:stop:overlap|stop_codon|ENSG00000069329|stop_codon|NA|stop_codon (ssRNA)
RNA: GGGAGUUCUACAGUCCGACGAUCUGGAGAAGGGGCCCCACAGACCGUUCGGGAUUAAGACCAGCCCGAUUUGGCCUGCGGGAUAGGGGACAGCAGGAGGAAGGCCGCGGGCAGGCUGAUCCGGGCCGGGGUGGGCGGCGGCUCCAACAGAGGAUUGAGCAUCA
B21: ENSG00000117906:stop:overlap|stop_codon|ENSG00000117906|stop_codon|NA|stop_codon (ssRNA)
RNA: GGGAGUUCUACAGUCCGACGAUCAGUCCUUUAGGAAGCAUCAAUGUGGAGGUUUGGGGCUCCAUCCUCAGAGCCAGUCUGCUUAGCUUCACAUUUAGCUCCAGCACUUCACGGUUGUGUAACUUUGGCUUCACUUAAAGGACACAACAGAGGAUUGAGCAUCA
B22: chr1:184691659:184691688:-|3pUTR|ENSG00000116406|msi1_unk|FALSE|overlapping (ssRNA)
RNA: GGGAGUUCUACAGUCCGACGAUCCUCCAACGUUGUAAUUACAACUCUACAUUCAUUUACUUACUUGACAUACUGCCACAAAGUAGUUUUUGAGUUCAUUAAAAAUUCCAAAGGCAUUAGUUGUUUUUUUUUUUUUUAGUGUUUCAACAGAGGAUUGAGCAUCA

These binders were tested against MSI1 full-length (mouse, UniProt Q61474 1-362) (assay: nsRBNS (natural sequence RNA bind-n-seq); RBNS binding buffer (assumed for nsRBNS): 25 mM Tris pH 7.5, 150 mM KCl, 3 mM MgCl2, 0.01% Triton X-100, 500 ug/ml BSA, 20 U/ml SUPERase-In, 4 C; UNK is unkempt and MSI1 is Musashi-1; names of the RNAs are library labels; protein concentration not given here; high values mean tight binding).
Sequence of UniProt Q61474 (Q61474 whole entry): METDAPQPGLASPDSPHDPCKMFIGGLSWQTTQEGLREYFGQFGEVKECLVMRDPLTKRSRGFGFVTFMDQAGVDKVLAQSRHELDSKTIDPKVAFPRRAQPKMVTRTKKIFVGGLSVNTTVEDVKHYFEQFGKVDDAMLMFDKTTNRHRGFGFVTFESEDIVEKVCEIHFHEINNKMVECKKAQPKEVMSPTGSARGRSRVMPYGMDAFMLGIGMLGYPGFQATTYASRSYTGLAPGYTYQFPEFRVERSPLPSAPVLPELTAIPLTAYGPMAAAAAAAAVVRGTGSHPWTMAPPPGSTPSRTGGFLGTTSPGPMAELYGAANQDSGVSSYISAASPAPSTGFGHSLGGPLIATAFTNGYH

Row | Binder | binding signal [enrichment R]
1 | B1 | 0.516
2 | B2 | 0.594
3 | B3 | 5.04
4 | B4 | 32.9
5 | B5 | 0.278
6 | B6 | 0.352
7 | B7 | 0.449
8 | B8 | 0.924
9 | B9 | 28.4
10 | B10 | 2
11 | B11 | 0.187
12 | B12 | 0.415
13 | B13 | 0.633
14 | B14 | 9.62
15 | B15 | 0.292
16 | B16 | 1.28
17 | B17 | 0.363
18 | B18 | 2.02
19 | B19 | 0.689
20 | B20 | 0.367
21 | B21 | 0.431
22 | B22 | 6.72
